Test results reported in PubChem BioAssay (Tox21).
Values joined by “and” are separate entries in the source; they are usually repeats but may differ in a detail not shown here. Identical values can stand only once. This list was built around the results that the source calls inconclusive (neither active nor inactive); the mix of calls is not that of the screen. For some of these results: Where the call is inconclusive, the potency comes from a doubtful curve fit. Some compounds were tested as several samples or in several runs, with calls that do not always agree. Active and inactive are the calls of the source. Unless noted, calls follow the shape of the dose curve; as a rule, active = well fitted curve in the direction sought with a large enough effect in the repeat runs; inconclusive = weak or mixed curves; inactive = no such curve, though single readings can be large; an effect the other way counts as inactive or inconclusive.

Legend:
[1] = molecular target: Thyrotropin receptor (Homo sapiens) (UniProt P16473); assay: qHTS assay to identify small molecule antagonists of the thyroid stimulating hormone receptor (TSHR) signaling pathway (AID 1259385; calls by dose curve; also: nearly all actives have a fitted effect of over 20% in size; also: potency is read from the fitted curve at half-maximal effect; as to activity change, negative = inhibition: % is scaled to controls: 0 for no effect and ±100 for the full control effect); details: TSHR-HEK293 cAMP HTRF, TSH-stimulated antagonist mode; activity change, negative = inhibition: at 92.4 µM (top of the series) unless noted
In short: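 Antagonist mode: compound-treated TSHR-expressing HEK293 cells were stimulated with 1.5 ng/mL TSH (final) in presence of Ro20-1724 for 30 min at RT. HTRF cAMP detection after 1 h; each compound tested at 15 concentrations, triplicate.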

[2] = molecular target: Progesterone receptor (Homo sapiens) (UniProt P06401); assay: qHTS assay to identify small molecule antagonists of the progesterone receptor (PR) signaling pathway (AID 1346795; active = well fitted inhibition curve with a large enough effect in the signal ratio in the repeat runs, not every such curve was filed as active; inconclusive = weak or mixed curves; the % refers to the signal ratio; also: potency is read from the fitted curve at half-maximal effect; as to activity change, negative = inhibition: % is scaled to controls: 0 for no effect and ±100 for the full control effect); details: PR-UAS-bla HEK293T, beta-lactamase FRET ratio, 16 h; activity change, negative = inhibition: at 92.4 µM (top of the series) unless noted
In short: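 Antagonist mode: compounds tested against 1 nM (final) promegestone stimulation in HEK293T cells expressing PR-UAS-bla reporter, 16 hr at 37C, 5% CO2; beta-lactamase activity detected via B/G FRET substrate after 2 hr at room temperature.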

[3] = qHTS assay to identify small molecule antagonists of the progesterone receptor (PR) signaling pathway - cell viability counter screen (AID 1346798); also: potency is read from the fitted curve at half-maximal effect; nearly all actives have a fitted effect of over 50% in size
In short: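 Counter screen for cytotoxicity: viability of PR-UAS-bla HEK293T cells was measured with CellTiter-Glo luminescence following 16 hr compound exposure in the presence of R5020.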

[4] = qHTS assay to identify small molecule agonists of the progesterone receptor (PR) signaling pathway - cell viability counter screen (AID 1346799; calls by dose curve; also: nearly all actives have a fitted effect of over 45% in size; also: potency is read from the fitted curve at half-maximal effect)
In short: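 Cells (PR-UAS-bla HEK293T) are plated at 3,000/well in 2% charcoal-stripped FBS medium, rested 6 hr, dosed and incubated 16 hr at 37C. CellTiter-Glo is then added and luminescence measured after 30 min at room temperature.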

[5] = qHTS assay to identify small molecule agonists of the TGF-beta/Smad signaling pathway - cell viability counter screen (AID 1346829); also: potency is read from the fitted curve at half-maximal effect; nearly all actives have a fitted effect of over 45% in size
In short: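 Here the cytotoxicity of library compounds is measured in SBE-bla HEK 293T cells treated for 5 hr, using CellTiter-Glo added to wells already read for the beta-lactamase reporter.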

[6] = qHTS assay to identify small molecule antagonists of the TGF-beta/Smad signaling pathway (AID 1346924; active = well fitted inhibition curve with a large enough effect in the signal ratio in the repeat runs, not every such curve was filed as active; inconclusive = weak or mixed curves; the % refers to the signal ratio); details: SBE-bla HEK293T, TGF-beta/Smad reporter, beta-lactamase ratio; activity, negative = inhibition: at 76.8 µM (top of the series) unless noted
In short: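 SBE-bla HEK 293T cells were plated overnight, then received compound in DMSO plus TGF-beta1 (added as a 0.25 ng/mL solution) and were incubated 5 h at 37 C. Beta-lactamase reporter activity was read after 2 h at room temperature with LiveBLAzer B/G FRET substrate (ex 405, em 460/530 nm).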

[7] = Human pregnane X receptor (PXR) small molecule agonists, qHTS cell viability counter screen (AID 1346977); also: nearly all actives have a fitted effect of over 50% in size; also: potency is read from the fitted curve at half-maximal effect
In short: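 Cytotoxicity counter screen run in the same wells as the PXR luciferase assay, using PXR-Luc HepG2 cells in charcoal-stripped serum medium. Viability: CellTiter-Fluor fluorescence after 24hr compound treatment.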

[8] = Caspase-3/7 induction in CHO-K1 cells by small molecules, qHTS cell viability counter screen (AID 1346979); also: nearly all actives have a fitted effect of over 35% in size; also: potency is read from the fitted curve at half-maximal effect
In short: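 Cytotoxicity counter screen run in parallel with the caspase-3/7 assay: CHO-K1 cells, 16hr compound treatment at 37C, then CellTiter-Fluor for 1hr before fluorescence reading.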

[9] = molecular target: Progesterone receptor (Homo sapiens) (UniProt P06401); assay: qHTS assay to identify small molecule agonists of the progesterone receptor (PR) signaling pathway (AID 1346784; calls by dose curve; also: nearly all actives have a fitted effect of over 30% in size; also: potency is read from the fitted curve at half-maximal effect; as to activation: % is scaled to controls: 0 for no effect and ±100 for the full control effect); details: PR-UAS-bla HEK293T, beta-lactamase FRET ratio, 16 h; activation: at 92.4 µM (top of the series) unless noted
In short: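 Cells (PR-UAS-bla HEK 293T, GripTite) were plated in assay medium containing 2% charcoal-stripped FBS and incubated 6 hr. Test compounds in DMSO were added for 16 hr at 37C. FRET substrate was then loaded for 2 hr at room temperature before fluorescence reading.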

[10] = qHTS assay to identify small molecule antagonists of the TGF-beta/Smad signaling pathway - cell viability counter screen (AID 1346824); also: potency is read from the fitted curve at half-maximal effect; nearly all actives have a fitted effect of over 50% in size
In short: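 Cytotoxicity counter-screen run in the same wells as the beta-lactamase Smad reporter read: CellTiter-Glo luminescence after 30 min at room temperature. HEK 293T SBE-bla cells had 5 hr compound exposure at 37 C with TGF-beta1 (0.25 ng/mL stock).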

[11] = qHTS assay to identify small molecule agonists of the TGF-beta/Smad signaling pathway (AID 1346859; active = well fitted activation curve with a large enough effect in the signal ratio in the repeat runs, not every such curve was filed as active; inconclusive = weak or mixed curves; the % refers to the signal ratio; also: potency is read from the fitted curve at half-maximal effect; as to activation: % is scaled to controls: 0 for no effect and ±100 for the full control effect); details: SBE-bla HEK293T, TGF-beta/Smad beta-lactamase reporter, 5 h; activation: at 76.8 µM (top of the series)
In short: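 Reporter line: HEK 293T with stably integrated SBE-controlled beta-lactamase. Compound exposure lasts 5 hr at 37 C and 5% CO2; substrate loading follows for 2 hr at room temperature, with emission read at 460 and 530 nm.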

[12] = Caspase-3/7 induction in CHO-K1 cells by small molecules, qHTS assay (AID 1346980); also: potency is read from the fitted curve at half-maximal effect; nearly all actives have a fitted effect of over 15% in size
In short: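 Luminescent Caspase-Glo 3/7 read (30min, room temperature) quantified apoptosis induction. Cells were wild-type CHO-K1, treated with compound for 17hr at 37 C and 5% CO2.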

[13] = qHTS assay to identify small molecule agonists of the estrogen receptor alpha (ER-alpha) signaling pathway in the presence of an antagonist - cell viability counter screen (AID 1259386);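 also: cells exposed to compounds for 22 h at 37 °C before the viability read; nearly all actives have a fitted effect of over 30% in size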; also: potency is read from the fitted curve at half-maximal effect
In short: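 VM7Luc4E2 cells (endogenous full-length ER-alpha, 4×ERE-luciferase) were held 5 days in phenol red-free medium with 10% charcoal-stripped FBS, plated, then given 10.0nM ICI-182,780 and compounds at 15 concentrations for 22hr at 37C; viability read by CellTiter-Fluor fluorescence.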

[14] = molecular target: Thyrotropin-releasing hormone receptor (Homo sapiens) (UniProt P34981); assay: qHTS assay to identify small molecule antagonists of the thyrotropin-releasing hormone receptor (TRHR) signaling pathway (AID 1346877; active = well fitted inhibition curve with a large enough effect in the repeat runs, not every such curve was filed as active; inconclusive = weak or mixed curves; also: potency is read from the fitted curve at half-maximal effect)
In short: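 TRHR-expressing HEK293 cells were seeded, cultured 18 h at 37 °C, then loaded with calcium dye for 2 h. Compounds were pre-incubated 5 min at room temperature before 1 nM TRH (final) was added, and kinetic fluorescence was recorded for 3 min.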

[15] = Caspase-3/7 induction in HepG2 cells by small molecules, qHTS assay (AID 1346978); also: potency is read from the fitted curve at half-maximal effect; nearly all actives have a fitted effect of over 15% in size
In short: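 Caspase-3/7 induction was measured by Caspase-Glo 3/7 luminescence (30 min, room temperature) after a 17 hr compound exposure of wild-type HepG2 cells seeded at 2,000 per well and pre-incubated 5 hr.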
Tags tell the direction and shape of the fitted curve or compound fluorescence and quenching.

UniProt P06401, sequence (P06401 whole entry, looked up): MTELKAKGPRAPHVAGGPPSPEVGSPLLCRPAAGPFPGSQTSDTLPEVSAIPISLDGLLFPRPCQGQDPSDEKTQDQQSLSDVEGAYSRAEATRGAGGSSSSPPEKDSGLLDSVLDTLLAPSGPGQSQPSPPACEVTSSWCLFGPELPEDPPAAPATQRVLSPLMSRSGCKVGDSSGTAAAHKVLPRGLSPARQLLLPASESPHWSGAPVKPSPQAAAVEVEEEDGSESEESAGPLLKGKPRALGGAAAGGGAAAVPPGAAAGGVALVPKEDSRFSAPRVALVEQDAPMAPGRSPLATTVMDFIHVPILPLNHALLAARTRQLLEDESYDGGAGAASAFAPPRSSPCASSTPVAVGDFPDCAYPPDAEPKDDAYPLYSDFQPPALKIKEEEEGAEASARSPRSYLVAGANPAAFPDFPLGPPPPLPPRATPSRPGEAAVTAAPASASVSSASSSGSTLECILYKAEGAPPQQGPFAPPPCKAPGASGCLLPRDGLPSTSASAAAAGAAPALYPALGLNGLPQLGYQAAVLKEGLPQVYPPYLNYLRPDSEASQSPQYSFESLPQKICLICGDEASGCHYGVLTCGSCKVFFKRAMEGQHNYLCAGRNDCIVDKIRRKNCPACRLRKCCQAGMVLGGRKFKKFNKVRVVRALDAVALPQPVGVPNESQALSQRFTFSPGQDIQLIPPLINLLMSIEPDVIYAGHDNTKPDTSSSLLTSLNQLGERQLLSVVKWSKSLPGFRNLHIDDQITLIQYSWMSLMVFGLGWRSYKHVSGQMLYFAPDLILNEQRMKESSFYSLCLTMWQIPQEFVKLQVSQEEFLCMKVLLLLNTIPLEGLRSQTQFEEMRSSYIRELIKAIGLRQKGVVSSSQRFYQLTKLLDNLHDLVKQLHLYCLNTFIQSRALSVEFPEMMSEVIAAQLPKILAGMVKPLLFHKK
UniProt P16473, sequence (P16473 whole entry, looked up): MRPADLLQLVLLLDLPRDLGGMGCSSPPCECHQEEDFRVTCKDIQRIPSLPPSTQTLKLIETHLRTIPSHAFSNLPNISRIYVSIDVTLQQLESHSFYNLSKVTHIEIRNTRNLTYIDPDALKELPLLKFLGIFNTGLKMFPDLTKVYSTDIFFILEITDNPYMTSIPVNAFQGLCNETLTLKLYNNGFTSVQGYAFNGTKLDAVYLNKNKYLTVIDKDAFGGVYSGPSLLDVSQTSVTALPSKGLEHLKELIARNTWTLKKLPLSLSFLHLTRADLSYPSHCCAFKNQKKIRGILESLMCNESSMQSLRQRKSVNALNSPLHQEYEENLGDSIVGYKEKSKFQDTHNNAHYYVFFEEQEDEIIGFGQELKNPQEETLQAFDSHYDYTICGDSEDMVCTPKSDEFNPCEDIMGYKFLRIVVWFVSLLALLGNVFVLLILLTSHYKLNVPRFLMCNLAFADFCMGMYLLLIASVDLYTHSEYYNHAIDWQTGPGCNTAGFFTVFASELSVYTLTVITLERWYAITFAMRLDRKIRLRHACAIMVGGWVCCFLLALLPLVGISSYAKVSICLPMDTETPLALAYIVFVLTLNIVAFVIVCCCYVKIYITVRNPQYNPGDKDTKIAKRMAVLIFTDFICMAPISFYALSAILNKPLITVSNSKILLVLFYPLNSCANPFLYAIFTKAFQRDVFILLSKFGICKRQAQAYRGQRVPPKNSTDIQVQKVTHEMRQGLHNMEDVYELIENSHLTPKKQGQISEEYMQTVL
UniProt P34981, sequence (P34981 whole entry, looked up): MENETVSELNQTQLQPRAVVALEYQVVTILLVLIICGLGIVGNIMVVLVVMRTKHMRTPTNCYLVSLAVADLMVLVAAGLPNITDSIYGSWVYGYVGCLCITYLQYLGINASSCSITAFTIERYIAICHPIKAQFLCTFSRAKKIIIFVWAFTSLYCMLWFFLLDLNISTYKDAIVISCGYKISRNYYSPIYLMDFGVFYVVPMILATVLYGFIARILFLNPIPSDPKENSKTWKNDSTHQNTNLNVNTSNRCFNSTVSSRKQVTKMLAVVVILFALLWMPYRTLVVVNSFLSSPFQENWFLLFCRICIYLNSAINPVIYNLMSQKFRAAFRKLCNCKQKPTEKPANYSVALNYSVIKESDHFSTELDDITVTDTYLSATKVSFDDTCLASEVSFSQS

For `OC(c1ccc(Cl)cc1)(c1ccc(Cl)cc1)c1cccnc1`, the activity change, negative = inhibition [1] was inconclusive: 11.6%, the Potency [2] was active: 17.2 µM and the Potency [3] was inconclusive: 27.3 µM [rising, single point]. For the same compound, the Potency [4] was inconclusive: 19.3 µM [rising, full curve], the Potency [5] was inconclusive: 54.9 µM [cytotoxic, single point] and the activity, negative = inhibition [6] was inconclusive: -1.15%. The Potency [7] was inconclusive: 68.6 µM [cytotoxic].

In the case of `CC(C)C(=O)OCC(C)(C)C(OC(=O)C(C)C)C(C)C` (stereo not given), the Potency [1] is reported as inconclusive: 34.7 µM [falling, partial curve] and the Potency [7] is reported as “inactive”.

With `CCCCCCCCCCCCCCCl` the Potency [1] was “inactive”, the Potency [2] was “inactive” and the Potency [4] was “inactive”. For the same compound, the Potency [8] was “inactive”.

For `C=CC(=O)OCC(COC(=O)C=C)(COC(=O)C=C)COC(=O)C=C`, the activity change, negative = inhibition [1] was inconclusive: 15.7%, the Potency [9] was inconclusive: 13.7 µM [cytotoxic, full curve, poor fit] and the Potency [2] was inconclusive: 27.3 µM [falling, single point]. For the same compound, the Potency [3] was active: 17.2 µM, the Potency [4] was active: 19.3 µM and the Potency [10] was inconclusive: 54.9 µM [cytotoxic, single point]. The Potency [5] was active: 49 µM, the Potency [11] was inconclusive: 54.9 µM [falling, single point] and the Potency [7] was active: 12.2 µM. The Potency [12] was inconclusive: 1.93 µM [activator, full curve, poor fit].

In the case of `C=CCc1ccc(OC(=O)Cc2ccccc2)c(OC)c1`, the Potency [1] is reported as inconclusive: 68.6 µM and the Potency [4] is reported as “inactive”.

With `CCC(C)c1cc([N+](=O)[O-])cc([N+](=O)[O-])c1O` (stereo not given) the Potency [13] was “inactive and active: 24.3 µM”, the Potency [2] was inconclusive: 30.6 µM [falling, full curve] and the Potency [4] was inconclusive: 5.45 µM [rising, full curve, poor fit]. For the same compound, the activity, negative = inhibition [6] was inconclusive: -12.9%.

For `CC[C@H]1C[C@@H]2C[C@H]3c4[nH]c5ccc(OC)cc5c4CCN(C2)[C@@H]13`, the Potency [13] was inconclusive: 47.7 µM [cytotoxic, partial curve], the Potency [2] was inconclusive: 0.0601 µM [rising, full curve, poor fit] and the Potency [3] was inconclusive: 6.74 µM [cytotoxic, single point]. For the same compound, the Potency [4] was inconclusive: 33.8 µM [cytotoxic, partial curve] and the Potency [8] was inconclusive: 67.4 µM [cytotoxic].

For `COC(=O)C(c1ccccc1)C1CCCCN1` (stereo not given), the activity change, negative = inhibition [2] was inconclusive: -6.57%.

For `O=C(O)c1c(Cl)ccc2cc(Cl)cnc12`, the Potency [2] was “inactive”.

For `Cc1cc(C(C)(C)c2cc(C)c(O)c(C)c2)cc(C)c1O`, the activation [9] was inconclusive: -17%, the Potency [2] was inconclusive: 66.3 µM [falling, single point] and the Potency [3] was active: 41.8 µM. For the same compound, the Potency [4] was active: 59.1 µM, the Potency [5] was inconclusive: 59.6 µM [cytotoxic, single point] and the Potency [11] was inconclusive: 53.1 µM [rising, single point]. For the same compound, the Potency [14] was inconclusive: 29.2 µM [inhibitor], the Potency [7] was inconclusive: 59.1 µM [cytotoxic] and the Potency [15] was inconclusive: 59.1 µM [activator].

With `COP(=S)(OC)Oc1ccc([N+](=O)[O-])cc1` the Potency [13] was inconclusive: 68.7 µM [cytotoxic, partial curve] and inconclusive: 61.1 µM [cytotoxic, partial curve], the Potency [2] was active: 24.3 µM and the Potency [10] was inconclusive: 54.9 µM [cytotoxic, single point]. For the same compound, the Potency [11] was “inactive” and the activity, negative = inhibition [6] was inconclusive: -38.8%.

In the case of `CC(C)[C@@H](Nc1ccc(C(F)(F)F)cc1Cl)C(=O)OC(C#N)c1cccc(Oc2ccccc2)c1` (stereo not given in full), the activation [9] is reported as inconclusive: -1.46%, the Potency [2] is reported as inconclusive: 46.8 µM [falling, partial curve] and the Potency [4] is reported as inconclusive: 37.2 µM [rising, partial curve]. For the same compound, the Potency [10] was inconclusive: 33.4 µM [cytotoxic, partial curve, poor fit] and the Potency [5] was inconclusive: 33.4 µM [cytotoxic, partial curve, poor fit].
